# Laboratory results: the supplement of paper PMC11417369
# Some of the results follow.
# Tested on: PfAP2-HC AP2 domain (GST-tagged)
# Experiment: gcPBM binding intensity (ln(normalized median fluorescence intensity)); higher = stronger DNA binding
# Outline: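 Binding intensity is the highest Masliner-normalised natural-log median intensity over replicate spots in either probe orientation. To obtain it, GST-tagged P. falciparum DNA-binding domains made in E. coli were incubated for 1 h on an Agilent 4 × 180k array of primer-extended double-stranded 36-bp intergenic genomic probes plus negative controls. Detection used Alexa488 anti-GST antibody with scanning at 488 nm.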
row,Sequence,gcPBM binding intensity (ln)
1,AAAAGGAACAGACACACACACATATATATATATATA [CACACA_site3587],10.8
2,CTCAAATAATTTTTTACACACATTATTTGAAATAAG [CACACA_site1290],9.57
3,ATGCTTTTATAAATAATTAAAAAAAAAAAAAAAAAA [TGCATGCA_negctrl_site533],8.86
4,TTTTTTTTTAATATTTGTACACAACATGAAACATTT [XGTACX_site473],9.73
5,GTAATATATACAAAATGTACAAAACAATAACATGAT [XGTACX_site8575],10
6,ATCCAAACAAATAAAACATGCATAATATATATATAT [TGCATGCA_site766],9.73
7,TAAAATATTACGTGTACACATAAATAAAAATAAAAA [CACACA_site5066],9.95
8,TTTTATATTCCACAAAAAATTATATAATAATAGAAC [CACACA_negctrl_site1741],9.28
9,TATACATATGAAAATACACACATACATACCTATATA [CACACA_site6888],9.96
10,TATTTAACACCTTATACACACTTTCTTCCTTTTTTA [CACACA_site4590],10.1
11,TAATTGTACGCCAATACACACAGAATTATAATGTAG [CACACA_site6201],9.87
12,ATGCACTCATTGTGCACACGCATATTACGAAAAGAA [CACACA_site2638],9.86
13,AAAAAAAAAAAAAACACACACACACCCATACAAAAT [CACACA_site1446],11.6
14,AAGATTTGAAAAAATACACACAATAAAAAAATAAAA [CACACA_site3281],10.1
15,TATATATATATGTGTATACACACCTGATAAAGGTAT [CACACA_site2653],10.2
16,AATAAATAAAAAACATGTACAAATATAATATAGCAT [XGTACX_site6429],10
17,AAAAAAAAAAAGCACACACACATATGTGTATTTATA [CACACA_site6578],10.3
18,ACAAAATATACAAAATGTACAAAATTTACAAAATGT [XGTACX_site3544],9.71
19,TACTAGCAAATACATACACACACACCCATATACATA [CACACA_site9163],10.4

row,Sequence,gcPBM binding intensity (ln)
1,GATATTGAGAAAGGGTGTACAAGATATTATACTATA [XGTACX_site3598],9.93
2,AATAGAAAAAAATAAGTGCATTTTGGTATTCATCAT [GTGCAC_site9614],9.74
3,AAATTTATATTCATTTGTACGTAATTTAAATTATAC [XGTACX_site5870],9.69
4,TTTTATGTAATTATTTGTACATATGCCTCTTAAACT [XGTACX_site748],9.64
5,ACATAAATAATAAAAACACACATATGTACATATATA [CACACA_site1913],9.96
6,TTTGTTCATATTATTGTGCACTTAAACGTAACAAAA [GTGCAC_site9505],9.54
7,TTTATATTCTTAAGTGTGCACTATATATATATATAT [GTGCAC_site9719],9.9
8,ACCCTATATGTAACTACACACCGCATATTGTTTACT [CACACA_site3071],10.5
9,ATGTATGTATATACTTGTACATATTCATATTAGTAT [XGTACX_site1118],9.62
10,AATGTAGCATTTTATCGTACACTTAATACAAAAAAG [XGTACX_site6214],9.5
11,AAAATAATATTTAATACACACACCAGTTCTGCAAAT [CACACA_site3736],10.9
12,TAATAAGTAAAAAAATGTACCCGTTAGGTTTAATAA [XGTACX_site638],9.61
13,TTTTTCTCTCTCTTATTATACAACAACAAAAAAAAA [GTGCAC_negctrl_site178],9.2
14,AGAAATATATATATATATATATGTGACAATATTTGT [TGCATGCA_negctrl_site282],9.85
15,TTTTTTTATTTTATTTTATTATCTTATGTATCACAA [CACACA_negctrl_site1755],9.61
16,ACAAAAAGGTAATTTACACACTGCATATAGGAATAA [CACACA_site2929],9.9
17,TATAATAATAATAATAGTACGTATTATTAAAAAACT [XGTACX_site10],9.91
18,ATATTACACATATATGCACACATTGTAGTTATTTAT [CACACA_site8843],9.99
19,CAATTACAAAAGAAATGTACTCGTAATAAATAAATA [XGTACX_site1126],9.77

row,Sequence,gcPBM binding intensity (ln)
1,TGAAATTTTTATACATGTACAAAATTAAATATAACA [XGTACX_site7324],9.63
2,TAAGTTCACAAAAAAAAAAAAAAATAAAGAAATAAA [CACACA_negctrl_site825],9.42
3,AAATTATTTCCGTGTACACATAAATATATATTTTAT [CACACA_site5121],9.89
4,TTATTATGCTGAGTACGTACTTATATAAGAATAGCA [XGTACX_site2955],9.55
5,TATTCTATATTTCTATTTAGAAAACATCCCAGTGTG [GTGCAC_negctrl_site184],9.24
6,ATGTATATAATAAGAACACACATATATTTAATTTAA [CACACA_site2941],10
7,AAAAATAAAATATATACATGCATATACATATTATAT [TGCATGCA_site668],9.65
8,TGTTATATTTAATATAGTACATATTATTTTATATAT [XGTACX_site70],9.48
9,ATTTATATGCACCATTGTACGTTTTATAAAGTTTGG [XGTACX_site3755],9.64
10,AGAAAATTAAAAAGAACACACAAATATATATAGAAT [CACACA_site3592],10.1
11,ATACATATATACATACGTACTTATATACATATGTGC [XGTACX_site5268],9.84
12,TATCATGTCTGTATTTCACACACGGATAATCATTTA [CACACA_site920],9.84
13,ACACATATATAAATATGTACATATATATATATACAT [XGTACX_site1595],9.83
14,TAATTAAATAAAAAAACACACACATATATACATATA [CACACA_site9141],10.2
15,TCTATTAATTAATATACACACATTAGATATAAATAT [CACACA_site7241],9.67
16,AAAAAAAAAAAAAAAAGTACTAATTGAATATTAAAC [XGTACX_site3383],9.44
17,ACATATATATAAATATATATATATATATATATATAT [CACACA_negctrl_site874],9.46
18,ATGGTAAGTATTTTATGTACATATATATTTATATAA [XGTACX_site4003],9.63
